Assay results taken from the supplement of paper PMC3722116.
Growth of fresh clinical P. falciparum isolates by hypoxanthine uptake over 42 h; for most isolates 1.6-1,647 nM mefloquine, 0.044-87 nM artesunate, 10-10,256 nM chloroquine, 2.4-236 nM lumefantrine. EC50, lower = more sensitive; slope from the same fit, higher = steeper. No active / inactive call. Fits with a coefficient of variation above 100% are not listed here; 15-28% of fits exceed 15%. Isolates are numbered anew.

Columns and labels:
lumefantrine [1] = compound: T1, CCCCN(CCCC)CC(O)c1cc(Cl)cc2c1-c1ccc(Cl)cc1/C2=C/c1ccc(Cl)cc1 [lumefantrine]
Method: (§1)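 Hypoxanthine uptake by fresh isolates, duplicate serial dilutions, 24 h of drug plus 18 h after the label; sigmoid fit per isolate.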

chloroquine [2] = compound: T2, CCN(CC)CCCC(C)Nc1ccnc2cc(Cl)ccc12 [chloroquine]
Method: as §1

artesunate [3] = compound: T3, C[C@H]1[C@H](OC(=O)CCC(=O)O)O[C@@H]2O[C@@]3(C)CC[C@H]4[C@H](C)CC[C@@H]1[C@@]24OO3 [artesunate]
Method: as §1

mefloquine [4] = compound: T4, OC(c1cc(C(F)(F)F)nc2c(C(F)(F)F)cccc12)C1CCCCN1 [mefloquine]
Method: as §1

lumefantrine [5] = compound: T1, lumefantrine; assay: slope of the dose-response curve (dimensionless); higher = steeper concentration-effect curve
Method: as §1

chloroquine [6] = compound: T2, chloroquine; assay: as above
Method: as §1

artesunate [7] = compound: T3, artesunate; assay: as above
Method: as §1

mefloquine [8] = compound: T4, mefloquine; assay: as above
Method: as §1

For “Plasmodium falciparum isolate 438 (pfmdr1 allele: 1042D, pfmdr1 copies: 1)”, the “EC50 of parasite growth” value (lumefantrine [1]) was 0.00902 µg/mL, the “EC50 of parasite growth” value (chloroquine [2]) was 0.118 µg/mL and the “EC50 of parasite growth” value (artesunate [3]) was 0.000404 µg/mL. The “EC50 of parasite growth” value (mefloquine [4]) was 0.0165 µg/mL, the slope (lumefantrine [5]) was 2.75 and the slope (chloroquine [6]) was 4.8. It also gave a slope (artesunate [7]) of 4.52 and a slope (mefloquine [8]) of 2.85.

For “Plasmodium falciparum isolate 88 (pfmdr1 allele: 1042D, pfmdr1 copies: 1)”, the “EC50 of parasite growth” value (lumefantrine [1]) was 0.00714 µg/mL, the “EC50 of parasite growth” value (chloroquine [2]) was 0.273 µg/mL and the “EC50 of parasite growth” value (artesunate [3]) was 0.00031 µg/mL. The “EC50 of parasite growth” value (mefloquine [4]) was 0.0149 µg/mL, the slope (lumefantrine [5]) was 3.04 and the slope (chloroquine [6]) was 5.97. For the same test system, the slope (artesunate [7]) was 6.09 and the slope (mefloquine [8]) was 3.07.

In the case of “Plasmodium falciparum isolate 144 (pfmdr1 allele: 86N, 1042N, pfmdr1 copies: 1)”, the “EC50 of parasite growth” value (lumefantrine [1]) is reported as 0.05 µg/mL, the “EC50 of parasite growth” value (chloroquine [2]) is reported as 0.0702 µg/mL and the “EC50 of parasite growth” value (artesunate [3]) is reported as 0.00122 µg/mL. The “EC50 of parasite growth” value (mefloquine [4]) was 0.0288 µg/mL, the slope (lumefantrine [5]) was 2.71 and the slope (chloroquine [6]) was 4.58. For the same test system, the slope (artesunate [7]) was 4.81 and the slope (mefloquine [8]) was 2.96.

For “Plasmodium falciparum isolate 361 (pfmdr1 allele: 86N, 1042N, pfmdr1 copies: 2)”, the “EC50 of parasite growth” value (lumefantrine [1]) was 0.0248 µg/mL, the “EC50 of parasite growth” value (chloroquine [2]) was 0.0805 µg/mL and the “EC50 of parasite growth” value (artesunate [3]) was 0.000717 µg/mL. For the same test system, the “EC50 of parasite growth” value (mefloquine [4]) was 0.0733 µg/mL, the slope (lumefantrine [5]) was 1.75 and the slope (chloroquine [6]) was 2.55. For the same test system, the slope (artesunate [7]) was 7.63 and the slope (mefloquine [8]) was 2.59.

In the case of “Plasmodium falciparum isolate 84 (pfmdr1 allele: 86N, 1042N, pfmdr1 copies: 1)”, the “EC50 of parasite growth” value (lumefantrine [1]) is reported as 0.00357 µg/mL, the “EC50 of parasite growth” value (chloroquine [2]) is reported as 0.0933 µg/mL and the “EC50 of parasite growth” value (artesunate [3]) is reported as 0.000327 µg/mL. For the same test system, the “EC50 of parasite growth” value (mefloquine [4]) was 0.00325 µg/mL, the slope (lumefantrine [5]) was 1.03 and the slope (chloroquine [6]) was 2.03. For the same test system, the slope (artesunate [7]) was 2.99 and the slope (mefloquine [8]) was 1.59.

“Plasmodium falciparum isolate 309 (pfmdr1 allele: 86Y, pfmdr1 copies: 1)” was tested, and the “EC50 of parasite growth” value (lumefantrine [1]) was 0.0241 µg/mL, the “EC50 of parasite growth” value (chloroquine [2]) was 0.16 µg/mL and the “EC50 of parasite growth” value (artesunate [3]) was 0.00155 µg/mL. The “EC50 of parasite growth” value (mefloquine [4]) was 0.0214 µg/mL, the slope (lumefantrine [5]) was 2.29 and the slope (chloroquine [6]) was 4.06. For the same test system, the slope (artesunate [7]) was 7.14 and the slope (mefloquine [8]) was 3.18.

“Plasmodium falciparum isolate 221 (pfmdr1 allele: 86N, 1042N, pfmdr1 copies: 1)” was tested, and the “EC50 of parasite growth” value (lumefantrine [1]) was 0.129 µg/mL, the “EC50 of parasite growth” value (chloroquine [2]) was 0.125 µg/mL and the “EC50 of parasite growth” value (artesunate [3]) was 0.00403 µg/mL. The “EC50 of parasite growth” value (mefloquine [4]) was 0.0542 µg/mL, the slope (lumefantrine [5]) was 9.98 and the slope (chloroquine [6]) was 3.76. For the same test system, the slope (artesunate [7]) was 8.4 and the slope (mefloquine [8]) was 3.39.

In the case of “Plasmodium falciparum isolate 360 (pfmdr1 allele: 86N, 1042N, pfmdr1 copies: 1)”, the “EC50 of parasite growth” value (lumefantrine [1]) is reported as 0.0132 µg/mL, the “EC50 of parasite growth” value (chloroquine [2]) is reported as 0.0893 µg/mL and the “EC50 of parasite growth” value (artesunate [3]) is reported as 0.000169 µg/mL. The “EC50 of parasite growth” value (mefloquine [4]) was 0.00553 µg/mL, the slope (lumefantrine [5]) was 0.988 and the slope (chloroquine [6]) was 2.34. For the same test system, the slope (artesunate [7]) was 2.1 and the slope (mefloquine [8]) was 1.18.

With “Plasmodium falciparum isolate 155 (pfmdr1 allele: 86N, 1042N, pfmdr1 copies: 1)” the “EC50 of parasite growth” value (lumefantrine [1]) was 0.0134 µg/mL, the “EC50 of parasite growth” value (chloroquine [2]) was 0.134 µg/mL and the “EC50 of parasite growth” value (artesunate [3]) was 0.00047 µg/mL. For the same test system, the “EC50 of parasite growth” value (mefloquine [4]) was 0.0176 µg/mL, the slope (lumefantrine [5]) was 2.02 and the slope (chloroquine [6]) was 3.21. It also gave a slope (artesunate [7]) of 4.34 and a slope (mefloquine [8]) of 2.34.

With “Plasmodium falciparum isolate 32 (pfmdr1 allele: 86N, 1042N, pfmdr1 copies: 1)” the “EC50 of parasite growth” value (lumefantrine [1]) was 0.052 µg/mL, the “EC50 of parasite growth” value (chloroquine [2]) was 0.0871 µg/mL and the “EC50 of parasite growth” value (artesunate [3]) was 0.000641 µg/mL. For the same test system, the “EC50 of parasite growth” value (mefloquine [4]) was 0.0332 µg/mL, the slope (lumefantrine [5]) was 1.84 and the slope (chloroquine [6]) was 11. It also gave a slope (artesunate [7]) of 7.09 and a slope (mefloquine [8]) of 2.42.

For “Plasmodium falciparum isolate 382 (pfmdr1 allele: 86N, 1042N, pfmdr1 copies: 1)”, the “EC50 of parasite growth” value (lumefantrine [1]) was 0.00459 µg/mL, the “EC50 of parasite growth” value (chloroquine [2]) was 0.327 µg/mL and the “EC50 of parasite growth” value (artesunate [3]) was 0.000641 µg/mL. The “EC50 of parasite growth” value (mefloquine [4]) was 0.015 µg/mL, the slope (lumefantrine [5]) was 1.91 and the slope (chloroquine [6]) was 6.76. For the same test system, the slope (artesunate [7]) was 3.09 and the slope (mefloquine [8]) was 1.95.

For “Plasmodium falciparum isolate 390 (pfmdr1 allele: 86N, 1042N, pfmdr1 copies: 1)”, the “EC50 of parasite growth” value (lumefantrine [1]) was 0.0125 µg/mL, the “EC50 of parasite growth” value (chloroquine [2]) was 0.193 µg/mL and the “EC50 of parasite growth” value (artesunate [3]) was 0.000248 µg/mL. For the same test system, the “EC50 of parasite growth” value (mefloquine [4]) was 0.0123 µg/mL, the slope (lumefantrine [5]) was 2.93 and the slope (chloroquine [6]) was 6.2. The slope (artesunate [7]) was 3.15 and the slope (mefloquine [8]) was 2.71.

For “Plasmodium falciparum isolate 203 (pfmdr1 allele: 86N, 1042N, pfmdr1 copies: 2)”, the “EC50 of parasite growth” value (lumefantrine [1]) was 0.013 µg/mL, the “EC50 of parasite growth” value (chloroquine [2]) was 0.0502 µg/mL and the “EC50 of parasite growth” value (artesunate [3]) was 0.000574 µg/mL. For the same test system, the “EC50 of parasite growth” value (mefloquine [4]) was 0.0303 µg/mL, the slope (lumefantrine [5]) was 2.63 and the slope (chloroquine [6]) was 2.8. The slope (artesunate [7]) was 7.74 and the slope (mefloquine [8]) was 2.96.

In the case of “Plasmodium falciparum isolate 337 (pfmdr1 allele: 86N, 1042N, pfmdr1 copies: 2)”, the “EC50 of parasite growth” value (lumefantrine [1]) is reported as 0.0301 µg/mL, the “EC50 of parasite growth” value (chloroquine [2]) is reported as 0.114 µg/mL and the “EC50 of parasite growth” value (artesunate [3]) is reported as 0.00121 µg/mL. The “EC50 of parasite growth” value (mefloquine [4]) was 0.0448 µg/mL, the slope (lumefantrine [5]) was 3.67 and the slope (chloroquine [6]) was 3.24. It also gave a slope (artesunate [7]) of 8.58 and a slope (mefloquine [8]) of 3.51.

With “Plasmodium falciparum isolate 380 (pfmdr1 allele: 86N, 1042N, pfmdr1 copies: 1)” the “EC50 of parasite growth” value (lumefantrine [1]) was 0.028 µg/mL, the “EC50 of parasite growth” value (chloroquine [2]) was 0.216 µg/mL and the “EC50 of parasite growth” value (artesunate [3]) was 0.000674 µg/mL. For the same test system, the “EC50 of parasite growth” value (mefloquine [4]) was 0.0241 µg/mL, the slope (lumefantrine [5]) was 2.08 and the slope (chloroquine [6]) was 5.78. It also gave a slope (artesunate [7]) of 5.24 and a slope (mefloquine [8]) of 2.02.

“Plasmodium falciparum isolate 366 (pfmdr1 allele: 86N, 1042N, pfmdr1 copies: 1)” was tested, and the “EC50 of parasite growth” value (lumefantrine [1]) was 0.00926 µg/mL, the “EC50 of parasite growth” value (chloroquine [2]) was 0.0727 µg/mL and the “EC50 of parasite growth” value (artesunate [3]) was 0.000185 µg/mL. The “EC50 of parasite growth” value (mefloquine [4]) was 0.00561 µg/mL, the slope (lumefantrine [5]) was 1.94 and the slope (chloroquine [6]) was 3.25. For the same test system, the slope (artesunate [7]) was 4.9 and the slope (mefloquine [8]) was 3.06.

With “Plasmodium falciparum isolate 425 (pfmdr1 allele: 86N, 1042N, pfmdr1 copies: 2)” the “EC50 of parasite growth” value (lumefantrine [1]) was 0.0528 µg/mL, the “EC50 of parasite growth” value (chloroquine [2]) was 0.181 µg/mL and the “EC50 of parasite growth” value (artesunate [3]) was 0.00268 µg/mL. The “EC50 of parasite growth” value (mefloquine [4]) was 0.0425 µg/mL, the slope (lumefantrine [5]) was 4.08 and the slope (chloroquine [6]) was 3.2. For the same test system, the slope (artesunate [7]) was 4.28 and the slope (mefloquine [8]) was 2.84.

With “Plasmodium falciparum isolate 300 (pfmdr1 allele: 86N, 1042N, pfmdr1 copies: 1)” the “EC50 of parasite growth” value (lumefantrine [1]) was 0.0173 µg/mL, the “EC50 of parasite growth” value (chloroquine [2]) was 0.176 µg/mL and the “EC50 of parasite growth” value (artesunate [3]) was 0.00126 µg/mL. The “EC50 of parasite growth” value (mefloquine [4]) was 0.0341 µg/mL, the slope (lumefantrine [5]) was 2.61 and the slope (chloroquine [6]) was 6.46. For the same test system, the slope (artesunate [7]) was 5.84 and the slope (mefloquine [8]) was 2.9.

For “Plasmodium falciparum isolate 257 (pfmdr1 allele: 86N, 1042N, pfmdr1 copies: 1)”, the “EC50 of parasite growth” value (lumefantrine [1]) was 0.0117 µg/mL, the “EC50 of parasite growth” value (chloroquine [2]) was 0.118 µg/mL and the “EC50 of parasite growth” value (artesunate [3]) was 0.000761 µg/mL. For the same test system, the “EC50 of parasite growth” value (mefloquine [4]) was 0.0189 µg/mL, the slope (lumefantrine [5]) was 2.08 and the slope (chloroquine [6]) was 3.41. It also gave a slope (artesunate [7]) of 5.08 and a slope (mefloquine [8]) of 2.05.

With “Plasmodium falciparum isolate 388 (pfmdr1 allele: 1042D, pfmdr1 copies: 1)” the “EC50 of parasite growth” value (lumefantrine [1]) was 0.017 µg/mL, the “EC50 of parasite growth” value (chloroquine [2]) was 0.112 µg/mL and the “EC50 of parasite growth” value (artesunate [3]) was 0.000474 µg/mL. The “EC50 of parasite growth” value (mefloquine [4]) was 0.0222 µg/mL, the slope (lumefantrine [5]) was 3.11 and the slope (chloroquine [6]) was 4.45. The slope (artesunate [7]) was 5.11 and the slope (mefloquine [8]) was 2.58.

With “Plasmodium falciparum isolate 136 (pfmdr1 allele: 86N, 1042N, pfmdr1 copies: 1)” the “EC50 of parasite growth” value (lumefantrine [1]) was 0.00802 µg/mL, the “EC50 of parasite growth” value (chloroquine [2]) was 0.365 µg/mL and the “EC50 of parasite growth” value (artesunate [3]) was 0.000484 µg/mL. The “EC50 of parasite growth” value (mefloquine [4]) was 0.0407 µg/mL, the slope (lumefantrine [5]) was 5.51 and the slope (chloroquine [6]) was 9.99. The slope (artesunate [7]) was 3.9 and the slope (mefloquine [8]) was 1.82.
